Growth inhibition data for 40 molecules are collected here from the supplement of paper PMC7266297.

Where a name gives a salt, the structure may show the parent alone. This is one part of the list. Repeats are few or missing, and single values can be far off.
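Further: Read-out is SRB optical density at 490 nm, with the control being wells given 0.5% DMSO vehicle, and compound added one day after cells were plated.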

The assay relates to KB-3-1. The assay is described as follows: growth inhibition relative to DMSO control (SRB); cervical cancer cells: KB-3-1 is the parent and KB-V1 overexpresses MDR1; SRB is the sulforhodamine B stain; higher = more growth inhibition. The following applies: 1 µM; 72 h.
As to `CN(C)CCc1c[nH]c2ccc(CS(=O)(=O)N3CCCC3)cc12` [Almotriptan Malate], the growth inhibition came out at 22.3%.
Take `CCCCCCCCCCCC1=C(O)C(=O)C=C(O)C1=O` [Embelin]: the growth inhibition came out at 2.56%.
For `CN1CCN(c2cccc(Nc3nc4c(-c5ccc(S(C)(=O)=O)cc5)cccn4n3)c2)CC1` the value was 33.7%.
As for `O=C(c1ccccc1)c1ccc2n1CCC2C(=O)O` (stereo not given) [Ketorolac], the figure is 37.8%.
Regarding `Cc1cc(/C=C/C#N)cc(C)c1Nc1ccnc(Nc2ccc(C#N)cc2)n1` [Rilpivirine], the growth inhibition was determined as 3.98%.
For `Cc1cn([C@H]2C[C@H](N=[N+]=[N-])[C@@H](CO)O2)c(=O)[nH]c1=O` [Zidovudine] the value was 27.8%; for `O=C(O)CCc1ccc(NCc2cccc(Oc3ccccc3)c2)cc1`, 40.7%; for `Cc1cc2c(F)c(Oc3ncnn4cc(OC[C@@H](C)OC(=O)[C@H](C)N)c(C)c34)ccc2[nH]1`, 29.7%.
In the case of `CC(C)NCC(O)COc1cccc2ccccc12` (stereo not given) [Propranolol HCl], the growth inhibition stood at 21.8%.
For `CCOc1nc2cccc(C(=O)OC(C)OC(=O)OC3CCCCC3)c2n1Cc1ccc(-c2ccccc2-c2nn[nH]n2)cc1` (stereo not given) [Candesartan Cilexetil] the value was 55.4%; for `CNC(=O)CN1CCC(Oc2cc3c(Nc4cccc(Cl)c4F)ncnc3cc2OC)CC1` [AZD8931 (Sapitinib)], 0.943%; for `O=C(O)COCCN1CCN(C(c2ccccc2)c2ccc(Cl)cc2)CC1` (stereo not given) [Cetirizine DiHCl], 14.1%.
For `Cc1ccccc1C(OCCN(C)C)c1ccccc1` (stereo not given) [Orphenadrine Citrate] the value was 24.8%; for `OC(CN1CCN(c2cccc(Cl)c2)CC1)C(c1ccccc1)c1ccccc1` (stereo not given), below 0%.
On to `Cc1ccc(NC(=O)c2cccc(C(C)(C)C#N)c2)cc1Nc1ccc2ncn(C)c(=O)c2c1`, for which the growth inhibition was below 0%.
For `Cn1c(=O)n(-c2ccc(C(C)(C)C#N)cc2)c2c3cc(-c4cnc5ccccc5c4)ccc3ncc21` [BEZ235 (NVP-BEZ235, Dactolisib)] the value was 94.7%.
As to `Nc1ccn([C@@H]2CS[C@H](CO)O2)c(=O)n1` [Lamivudine], the growth inhibition was 41.4%.
Turning to `C#CCN[C@@H]1CCc2ccccc21` [Rasagiline Mesylate], the growth inhibition was below 0%.
For `CCN(c1cc(-c2ccc(CN3CCOCC3)cc2)cc(C(=O)NCc2c(C)cc(C)[nH]c2=O)c1C)C1CCOCC1` the value was 12.8%.
As for `CNC(=O)[C@H](Cc1ccccc1)NC(=O)[C@H](CC(C)C)[C@H](CSc1cccs1)C(=O)NO` [Batimastat (BB-94)], the figure is 11.1%; as for `Cn1cnc2c(F)c(Nc3ccc(Br)cc3F)c(C(=O)NOCCO)cc21`, 11%.
As for `O=C(O)c1cccc(-c2noc(-c3ccccc3F)n2)c1` [Ataluren (PTC124)], the growth inhibition came to 43.9%.
As for `CC[C@@H]1C(=O)N(C)c2cnc(Nc3ccc(C(=O)NC4CCN(C)CC4)cc3OC)nc2N1C1CCCC1`, the figure is 94.1%; as for `CNC[C@H](O)c1ccc(O)c(O)c1` [Epinephrine Bitartrate], below 0%.
As for `COc1ccc(CNc2nc(N3CCC[C@H]3CO)ncc2C(=O)NCc2ncccn2)cc1Cl` [Avanafil], the figure is below 0%; as for `CN(C)C(=O)[C@H](O)[C@H](Cc1ccccc1)NC(=O)c1cc2cc(Cl)ccc2[nH]1`, below 0%.
With `NC(=O)Nc1cc(-c2cccc(F)c2)sc1C(=O)N[C@H]1CCCNC1`, the growth inhibition is 75.6%.
For `COc1ccc(-c2nc3cc(C4=NNC(=O)CC4C)ccc3[nH]2)cc1` (stereo not given) [Pimobendan] the value was 43.1%; for `O=C1C[C@@H](c2ccc(O)cc2)Oc2cc(O)cc(O)c21` [Naringenin], below 0%.
`O=c1cc(-c2cccc3c2Sc2ccccc2S3)oc(N2CCOCC2)c1` gave a growth inhibition of 18.3%.
In turn, `O=C(c1ccc(F)cc1)N1CCC[C@H](c2nc(-c3ccc(F)cc3)no2)C1` displayed a growth inhibition below 0%.
For `O=C(NC1CCNCC1)c1n[nH]cc1NC(=O)c1c(Cl)cccc1Cl` the value was 99.7%.
For `CN1C(C(=O)Nc2ccccn2)=C(O)c2sc(Cl)cc2S1(=O)=O` [Lornoxicam] the value was 24.5%.
As for `CCNC(=O)Nc1ccc(-c2nc3c(c(N4CCOC[C@@H]4C)n2)CCN(C2COC2)C3)cc1`, the figure is 87.5%; as for `CC12CC3CC(C)(C1)CC(N)(C3)C2` [Memantine HCl], 20.8%.
Molecule `CNC(=O)c1cc(COc2nnc(Nc3ccc(Cl)cc3)c3ccoc23)ccn1` [Telatinib] returned a growth inhibition below 0%.
For `CCOC(=O)[C@H](CCc1ccccc1)N[C@@H](C)C(=O)N1CCC[C@H]1C(=O)O` [Enalapril Maleate] the value was 42.6%.
For `O=c1ncccn1[C@@H]1O[C@H](CO)[C@@H](O)[C@H]1O` [Zebularine] the value was 4.69%.
As for `COc1ccc(CNCc2cccc3ccccc23)cc1`, the growth inhibition stood at 12.4%.
`COCC(=O)NC/C=C/c1ccc2ncnc(Nc3ccc(Oc4ccc(C)nc4)c(C)c3)c2c1` came in with a growth inhibition of 21.5%.
